Structures are written as SMILES. The whole screen tested about 48,000 compounds, of which about 1,200 (2.5%) were called active. About 2% were inconclusive and are not listed.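 How the source made its calls: active means activation of at least 60% and not above a set upper limit (about 1 call in 100 departs from these limits); inconclusive means activation of 40% to 60%, or above that upper limit; inactive means activation under 40%.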 The list shows a part of the results.

The experiment has as its target Probable G-protein coupled receptor 32 (Homo sapiens) (UniProt O75388). In words: qHTS for Agonists of Human Resolvin D1 Receptor DRV1. Further: 0% is about no effect. As to conditions: CHO-K1 GPR32 beta-arrestin PathHunter luminescence, 90 min; at 76.9 µM; hits give high values; zero percent set by DMSO-only wells. In a few lines: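 PathHunter enzyme-fragment complementation, CHO-K1 GPR32 stable line; 2,500 cells/well, overnight attach; cpd 90 min 37 °C 5% CO2; detection reagent 1 h RT; chemiluminescence. DMSO = EC0.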
UniProt O75388, sequence (O75388 whole entry, looked up, the tested form may be a part): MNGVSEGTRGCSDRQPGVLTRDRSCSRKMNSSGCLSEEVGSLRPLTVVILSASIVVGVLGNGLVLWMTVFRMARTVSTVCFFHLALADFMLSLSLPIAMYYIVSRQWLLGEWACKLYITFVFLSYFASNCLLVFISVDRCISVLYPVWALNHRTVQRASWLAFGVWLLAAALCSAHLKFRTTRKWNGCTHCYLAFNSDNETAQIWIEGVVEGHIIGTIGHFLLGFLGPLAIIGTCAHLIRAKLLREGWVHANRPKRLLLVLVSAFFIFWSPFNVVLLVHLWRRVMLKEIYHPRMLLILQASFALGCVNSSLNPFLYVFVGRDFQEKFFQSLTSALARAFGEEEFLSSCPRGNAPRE
Turning to `COc1ccc(N2CC3=C(C2=O)C(c2ccc(Br)cc2)NC(=O)N3C)cc1` (stereo not drawn), the activation is inactive: 1.55%. Then `Cc1cc(Nc2sc(C(=O)c3ccc(F)cc3)c(N)c2C(=O)Nc2ccc(F)cc2)ccc1Cl`, with inactive: -77%. Then `Cc1ccc(Cl)cc1N1CCN(CCCNc2ncnc3onc(-c4ccc(F)cc4)c23)CC1`, with inactive: 14.3%. For `O=C1CC(=O)Nc2cc(S(=O)(=O)N3CCOc4ccccc43)ccc2N1`, the activation is inactive: -7.35%. On to `CC(C)CN(CCCNC(=O)CN1C(=O)COc2ccc(S(=O)(=O)N3CCCCCC3)cc21)CC(C)C`, for which the activation is inactive: -14.8%.

`COc1cc(NC(=O)CSc2nc(C)c(C(=O)Nc3ccccc3)c(-c3ccc(OC)c(OC)c3)c2C#N)c(OC)cc1Cl`: the activation was inactive: 25%. Then `COc1cccc(-n2c(=O)c3sc4ccccc4c3n(CC(=O)Nc3ccc(F)cc3F)c2=O)c1`, with inactive: 2.4%; and `CC1CCN(C(=O)c2cnn(-c3ccc(Cl)cc3)c2C2CCN(C(=O)OC(C)(C)C)CC2)CC1`, with inactive: -6.09%. The value for `Cc1ccc(-c2nc3sccn3c2Nc2ccccc2C)cc1` was inactive: -27.6%; that for `COc1cccc(CNC(=O)CN2C(=O)CSc3ccc(S(=O)(=O)N(C)C)cc32)c1` was inactive: -0.997%. The value for `CC(C)(C)C1CCc2c(sc(NC(=O)c3cccc(Cl)c3)c2C(N)=O)C1` (stereo not drawn) was inactive: -1.5%; that for `Cc1c(C(=O)OC2CCCC2)[nH]c2c1C(=O)CC(c1ccc(C(C)(C)C)cc1)C2` (stereo not drawn) was inactive: 3.43%; that for `Cc1cc2c(cc3c(SCc4ccc(Cl)cc4)nnc(C)n32)o1` was inactive: -22.9%. For `COc1ccc(NC(=O)CSc2oc(-c3ccc(C)cc3)nc2S(=O)(=O)c2ccc(C)cc2)c(OC)c1`, the activation is inactive: 8.85%. The value for `CCC(=O)Oc1c(Sc2ccc(Cl)cc2)c(C)nn1C(C)(C)C` was inactive: 29.2%; that for `CCN(CCCNC(=O)c1cc2cc3cc(OC)ccc3nc2s1)c1cccc(C)c1` was inactive: -8.46%; that for `CSCCC(NS(=O)(=O)c1ccc2c(c1)oc(=O)n2C)C(=O)N1CCN(c2cc(Cl)ccc2C)CC1` (stereo not drawn) was inactive: -27.5%. The value for `Cc1cccc(N2CCN(C(=O)c3nn(C)c4c3CSc3ccccc3-4)CC2C)c1` (stereo not drawn) was inactive: 1.33%. Take `CCOC(=O)c1ccccc1NC(=O)CSc1nc2ncccc2o1`: the activation is inactive: -6.62%. On to `CCN1CCN(Cc2c(O)ccc3oc(C)c(C(=O)Nc4ccc(OC)c(Cl)c4)c23)CC1`, for which the activation is inactive: -5.03%. The value for `CCc1cccc(NC(=O)CNS(=O)(=O)c2ccc3nc(C)sc3c2)c1` was inactive: -80.2%; that for `COc1ccc2c(c1)c1c(c(=O)n(-c3cccc(C)c3)c(=O)n1CC(=O)Nc1c(C)cc(C)cc1C)n2C` was inactive: -12.8%.

Consider `Cc1cn(C)c(CC(=O)NCc2ccc(F)cc2)c1C(=O)O`, for which the activation is inactive: -4.04%. Then `Cc1cc(C)cc(NC(=O)CN2C(=O)COc3ccc(S(=O)(=O)Nc4ccccc4)cc32)c1`, with inactive: -0.182%. As for `CCC(C)NC(=O)c1cn(CC)c2ccc(S(=O)(=O)N3CCCCC3)cc2c1=O` (stereo not drawn), the activation is inactive: 6.03%. The value for `Cc1ccc(CSC2=Nc3ccccc3C3=NC(CC(=O)NC4CCCCC4)C(=O)N23)c(C)c1` (stereo not drawn) was inactive: -9.38%. The value for `Cc1ccc2nc(-c3ccncc3)c(Nc3ccccc3C)n2c1` was inactive: -27.8%; that for `CC1=C(c2ccc(C)cc2)S(=O)(=O)N=C1N1CCN(c2ccccc2)CC1` was inactive: -5.76%; that for `Cc1cc(Nc2cccc(C(F)(F)F)c2)ncn1` was inactive: 4.72%. Turning to `Cc1ccc(C(NC(=O)Cc2cccs2)C(=O)Nc2ccc(C(C)C)cc2)cc1` (stereo not drawn), the activation was inactive: -8.47%. The value for `CN(Cc1ccccc1)S(=O)(=O)c1ccc(F)c(C(=O)Nc2ccccc2C(F)(F)F)c1` was inactive: -22.9%. Then `Cc1cccc(-c2nc3c4ccccc4nc(NCc4ccccc4Cl)n3n2)c1`, with inactive: 0.313%.

Regarding `Cc1ccc(NS(=O)(=O)c2ccc3c4c(cccc24)C(=O)N3)c(C)c1`, the activation is inactive: -3.19%. The value for `CCn1cc(C(=O)NCc2ccccc2)c(=O)c2cc(S(=O)(=O)N3CCCCC3)ccc21` was inactive: 0.542%; that for `CNS(=O)(=O)c1cn(CC(=O)N2CCN(c3ccc(OC)cc3)CC2)cc1S(=O)(=O)NC` was inactive: -6.22%; that for `O=C(Nc1ccc(N2CCC(N3CCCCC3)CC2)c(C(=O)O)c1)c1ccccc1` was inactive: 25.7%.

With `O=C(COc1ccccc1)N(Cc1cccnc1)c1nc2ccc(Cl)cc2s1`, the activation was inactive: -14.6%. The value for `O=C(Nc1ccc2oc(-c3cccnc3)nc2c1)c1ccc(-c2ccc(Cl)cc2)o1` was inactive: 32.9%; that for `Cc1cc2oc(C(=O)Nc3sc4c(c3C(=O)NCC3CCCO3)CCC4)cc(=O)c2cc1C` (stereo not drawn) was inactive: -16.5%. The value for `CC(=O)Nc1ccc(O)cc1` was inactive: 12.3%. The value for `COc1ccc(CNC(=O)CSc2nc3ccsc3c(=O)n2Cc2ccccc2Cl)cc1` was inactive: 4.77%. Take `CCc1ccc(N2C(=O)CC(c3cc(OC)ccc3OC)C3=C2COC3=O)cc1` (stereo not drawn): the activation was inactive: -3.7%. Consider `CCOc1ccc(C2CC(=O)n3nc(-c4ccc(C)cc4)nc3S2)cc1` (stereo not drawn), for which the activation was inactive: -2.48%. The value for `Cc1ccc(NC(=O)Cn2ncn3c(cc4ccccc43)c2=O)c(C)c1` was inactive: -16.5%.

For the compound `COc1ccccc1CNC(=O)Cc1csc2nc(-c3ccc(Cl)cc3)cn12`, the activation was inactive: -4.71%. With `CCOc1cc(CNC(=O)c2ccc(C)c(NC(=O)c3nsc4ccccc34)c2)ccc1OC`, the activation is inactive: -15.5%. The value for `CC(NC(=O)c1ccc2c(c1)N(Cc1ccc(Cl)cc1)C(=O)c1ccccc1S2(=O)=O)c1ccccc1` (stereo not drawn) was inactive: -33.8%; that for `CCOc1cc2sc(N3CCC(C(=O)Nc4ccc(C)cc4)CC3)nc2cc1Br` was inactive: -4.63%; that for `CCCCCn1c(=N)c(S(=O)(=O)c2ccccc2)cc2c(=O)n3ccccc3nc21` was inactive: -7.37%. The value for `CCOc1ccc(CCNC(=O)Cn2nc(CC)n3c(cc4sc(CC)cc43)c2=O)cc1OCC` was inactive: -16%; that for `CCn1c(=O)c2cc(C(=O)NC3CCCCCC3)sc2c2ccccc21` was inactive: -7.98%. `COc1ccc(CNC(=O)CN(c2ccccc2OC)S(=O)(=O)c2ccc(C)cc2)cc1`: the activation is inactive: 6.29%.

In the case of `CCc1ccc(CSc2nc(-c3ccc(OC)cc3)nc3c2Cc2c(CO)cnc(C)c2O3)cc1`, the activation was inactive: 17.4%.

Source of the values: PubChem BioAssay AID1346428 (National Center for Advancing Translational Sciences (NCATS), 2018).
